Data as given in the supplement of paper PMC9446081.
Among all 39,000 compounds or so, about 220 (0.56%) showed activity. Some of the results follow.

tested on: Escherichia coli K-12 BW25113; experiment: relative growth (OD600 normalised to plate interquartile mean) (fraction); higher = less growth inhibition, active = 0.2 or less; details: 50 µM; LB; incubation time: overnight (16-24 h)
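Further: static incubation at 37 °C against the wild-type strain, values averaged over two biological replicates.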

SMILES | relative growth
C[C@@H]1CN([C@@H](C)CO)C(=O)c2cccc(NC(=O)c3cnccn3)c2O[C@H]1CN(C)S(=O)(=O)c1ccc(Cl)cc1 | inactive: 0.971
COc1cccc(NC(=O)N2C[C@H](O)COC[C@H]3O[C@H](CC(=O)NC4Cc5ccccc5C4)CC[C@@H]32)c1 | inactive: 0.932
Cn1ncc2c(NN3C(=O)CCC3=O)ncnc21 | inactive: 1.02
Cc1noc(C)c1NC(=O)Nc1cccc2c1O[C@@H](CN(C)S(=O)(=O)c1ccccc1)[C@H](C)CN([C@@H](C)CO)C2=O | inactive: 1.01
O=C(CCCl)NCCc1ccccc1 | inactive: 1.07
Cc1ccc(-c2cnc3c(c2)C(=O)N([C@H](C)CO)C[C@H](C)[C@H](CN(C)C(=O)Cc2cccnc2)O3)cc1 | inactive: 1
CC(/C=C/C(=O)NO)=C\c1ccccc1OC[C@@H]1[C@H]2C[C@H]3c4[nH]c5ccccc5c4CCN3C[C@@H]2CC[C@@H]1O | inactive: 1
C[C@@H]1CCCCO[C@@H](CN(C)S(=O)(=O)c2ccc(Cl)cc2)[C@@H](C)CN([C@@H](C)CO)C(=O)c2cc(NC(=O)NC3CCCCC3)ccc2O1 | inactive: 0.995
C[C@H]1CCCCO[C@@H](CN(C)Cc2ccccc2)[C@@H](C)CN([C@@H](C)CO)C(=O)c2cc(NC(=O)C3CCCCC3)ccc2O1 | inactive: 0.962
CC(C)NC(=O)Nc1cccc2c1O[C@H](CN(C)Cc1ccc3c(c1)OCO3)[C@H](C)CN([C@H](C)CO)C2=O | inactive: 1
C[C@H](CO)N1C[C@H](C)[C@H](CN(C)Cc2ccc(Cl)c(Cl)c2)Oc2ccc(NS(=O)(=O)c3ccc(F)cc3)cc2C1=O | inactive: 1.01
C[C@H]1CN([C@@H](C)CO)C(=O)CCCn2nncc2CO[C@H]1CN(C)S(=O)(=O)c1cn(C)cn1 | inactive: 0.976
C[C@H]1CCCCO[C@@H](CN(C)C(=O)CCC(F)(F)F)[C@@H](C)CN([C@@H](C)CO)C(=O)c2cc(NS(=O)(=O)c3ccc(F)cc3)ccc2O1 | inactive: 0.885
C[C@@H]1CCCCO[C@H](CN(C)Cc2ccc(Cl)c(Cl)c2)[C@@H](C)CN([C@@H](C)CO)C(=O)c2cc(NC(=O)Nc3ccc(C(F)(F)F)cc3)ccc2O1 | inactive: 1.03
C[C@H]1CCCCO[C@H](CN(C)C(=O)Nc2ccc3c(c2)OCO3)[C@@H](C)CN([C@@H](C)CO)C(=O)c2cc(NC(=O)C3CCCCC3)ccc2O1 | inactive: 1.01
Cc1ccc(S(=O)(=O)Nc2ccc3c(c2)C(=O)N([C@H](C)CO)C[C@@H](C)[C@H](CN(C)Cc2ccc(Cl)c(Cl)c2)OCCCC[C@@H](C)O3)cc1 | inactive: 0.966
COc1ccc(NC(=O)Nc2ccc3c(c2)C(=O)N([C@H](C)CO)C[C@H](C)[C@@H](CN(C)C(=O)Nc2ccccc2)OCCCC[C@H](C)O3)cc1 | inactive: 1.03
CC(=O)Nc1nnc(S(N)(=O)=O)s1 | inactive: 1.1
C[C@@H]1CCCCO[C@H](CN(C)C(=O)Nc2ccc(C(F)(F)F)cc2)[C@@H](C)CN([C@H](C)CO)C(=O)c2cc(NS(=O)(=O)c3ccc(Cl)cc3)ccc2O1 | inactive: 0.842
C[C@@H]1CN([C@@H](C)CO)C(=O)c2cc(NC(=O)CCC(F)(F)F)ccc2O[C@@H]1CN(C)C(=O)Nc1ccc(C(F)(F)F)cc1 | inactive: 0.99

SMILES | relative growth
CCCCC(CC)CCC(CC(C)C)OS(=O)(=O)[O-].[Na+] (centres undefined) | inactive: 0.746
CC(=O)Nc1c(I)cc(I)c(C(=O)O)c1I | inactive: 1.16
Cc1ccc(S(=O)(=O)Nc2ccc3c(c2)C(=O)N([C@@H](C)CO)C[C@H](C)[C@H](CN(C)C(=O)C2CCCCC2)OCCCC[C@H](C)O3)cc1 | inactive: 0.979
Cc1cc2cc3c(C)cc(=O)oc3c(C)c2o1 | inactive: 1.04
C[C@@H]1CN([C@H](C)CO)C(=O)c2ccccc2-c2ccccc2CO[C@H]1CN(C)C(=O)Nc1ccc(-c2ccccc2)cc1 | inactive: 0.999
O=C(C[C@@H]1C[C@@H]2c3cc(NC(=O)Cc4ccncc4)ccc3O[C@@H]2[C@H](CO)O1)NCCN1CCCCC1 | inactive: 1
C[C@H]1CN([C@@H](C)CO)C(=O)CCCn2nncc2CO[C@H]1CN(C)S(=O)(=O)c1ccc(Oc2ccccc2)cc1 | inactive: 1.01
CC(C)Oc1ccc2c(=O)c(-c3ccccc3)coc2c1 | inactive: 1.12
COc1ccc(NC(=O)N(C)C[C@H]2OCCCC[C@@H](C)Oc3ccc(NC(=O)c4ccncc4)cc3C(=O)N([C@@H](C)CO)C[C@@H]2C)cc1 | inactive: 0.974
NNC(=O)[C@@H]1C(c2ccccc2)[C@H]1C(=O)NN (some centres undefined) | inactive: 1.04
C[C@@H]1CN([C@@H](C)CO)C(=O)c2cc(C#Cc3ccccc3F)cnc2O[C@H]1CN(C)C(=O)C1CCOCC1 | inactive: 0.948
Cc1noc(C)c1S(=O)(=O)Nc1ccc2c(c1)C(=O)N([C@@H](C)CO)C[C@@H](C)[C@@H](CN(C)Cc1ccc(Cl)c(Cl)c1)OCCCC[C@@H](C)O2 | inactive: 0.953
COc1ccc(NC(=O)N(C)C[C@@H]2OCCCC[C@@H](C)Oc3ccc(NC(=O)Nc4cccc5ccccc45)cc3C(=O)N([C@@H](C)CO)C[C@H]2C)cc1 | inactive: 1.01
COCCOC(=O)N1C(=O)[C@@]2(c3cc(C#CCNC(N)=O)ccc31)[C@H](c1ccc(OCCO)cc1)N1[C@H](c3ccccc3)[C@H](c3ccccc3)OC(=O)[C@H]1[C@@H]2C(=O)N1CCc2cc(OC)c(OC)cc2C1 | inactive: 1.03
C[C@H]1CN([C@@H](C)CO)C(=O)Cc2cc(NC(=O)Nc3ccccc3)ccc2O[C@H]1CN(C)C(=O)Nc1ccc(C(F)(F)F)cc1 | inactive: 1.02
Cc1noc(C)c1S(=O)(=O)Nc1ccc2c(c1)C(=O)N([C@H](C)CO)C[C@H](C)[C@H](CN(C)CC1CCCCC1)OCCCC[C@@H](C)O2 | inactive: 0.983
C[C@H](CO)N1C[C@H](C)[C@@H](CN(C)S(=O)(=O)c2ccc(F)cc2)Oc2ccc(NC(=O)Nc3ccc(C(F)(F)F)cc3)cc2C1=O | inactive: 0.974
CC(C)NC(=O)Nc1ccc2c(c1)CC(=O)N([C@H](C)CO)C[C@@H](C)[C@H](CN(C)S(=O)(=O)c1cn(C)cn1)O2 | inactive: 1.05
C[C@@H]1CN([C@@H](C)CO)C(=O)c2cc(NC(=O)Nc3ccc(C(F)(F)F)cc3)ccc2O[C@@H](C)CCCCO[C@@H]1CN(C)Cc1ccc(C(F)(F)F)cc1 | inactive: 0.997
Cc1ccccc1OCC(=O)NCC(=O)O | inactive: 1.02

SMILES | relative growth
Cn1cnc(CCNC(=O)C[C@@H]2CC[C@H]3[C@@H](COC[C@@H](O)CN3C(=O)Nc3ccc(Cl)cc3)O2)c1 | inactive: 0.917
Cc1ccc(S(=O)(=O)N(C)C[C@H]2Oc3ccc(NC(=O)NC(C)C)cc3C(=O)N([C@H](C)CO)C[C@H]2C)cc1 | inactive: 1.03
Cc1noc(C)c1S(=O)(=O)Nc1ccc2c(c1)C(=O)N([C@@H](C)CO)C[C@H](C)[C@@H](CN(C)S(=O)(=O)c1ccccc1)O2 | inactive: 1
O=C(CCCCCCC(=O)Nc1ccc([C@H]2C[C@H](c3ccccc3)O[C@H](c3ccncc3)O2)cc1)NO | inactive: 0.955
COc1ccc(S(=O)(=O)Nc2ccc3c(c2)CC(=O)N([C@H](C)CO)C[C@@H](C)[C@@H](CN(C)S(=O)(=O)c2ccccc2)O3)cc1 | inactive: 0.998
C[C@@H]1CN([C@H](C)CO)C(=O)c2cc(-c3cccnc3)cnc2O[C@H]1CN(C)Cc1ccc(-c2ccccc2)cc1 | inactive: 1.03
Cn1c2c(c(=S)[nH]c1=O)CCC2 | inactive: 0.95
C[C@H]1CN([C@@H](C)CO)C(=O)c2ccccc2-c2ccccc2CO[C@@H]1CN(C)C(=O)c1cc(Cl)cc(Cl)c1 | inactive: 0.983
C[C@@H]1CN([C@@H](C)CO)C(=O)c2cccc(NC(=O)CCCCCC(=O)Nc3ccccc3N)c2O[C@H]1CN(C)C(=O)Nc1ccccc1 | inactive: 0.981
C[C@@H]1CN([C@H](C)CO)C(=O)c2cc(NC(=O)Nc3ccc(F)cc3)ccc2O[C@@H](C)CCCCO[C@H]1CN(C)Cc1ccc(C(=O)O)cc1 | inactive: 0.932
C[C@@H]1CN([C@H](C)CO)C(=O)Cc2cc(NS(C)(=O)=O)ccc2O[C@H]1CN(C)Cc1ccc2c(c1)OCO2 | inactive: 1
C[C@@H]1CCCCO[C@H](CN(C)C(=O)Nc2cccc3ccccc23)[C@@H](C)CN([C@@H](C)CO)C(=O)c2cc(NS(=O)(=O)c3ccccc3)ccc2O1 | inactive: 1.01
Cc1cc(CCC[C@H](CC(=O)NO)C(=O)N[C@H](C(=O)N[C@H](C)c2ccccc2)C(C)(C)C)ccc1-c1ccccc1 | inactive: 0.879
C[C@@H]1CN([C@H](C)CO)C(=O)c2cc(NS(C)(=O)=O)ccc2O[C@H]1CN(C)S(=O)(=O)c1cn(C)cn1 | inactive: 1.04
C[C@@H]1CCCCO[C@@H](CN(C)CC2CCCCC2)[C@@H](C)CN([C@@H](C)CO)C(=O)c2cc(NC(=O)Cc3ccccc3)ccc2O1 | inactive: 1.01
CC(=O)N1CCOC[C@@]2(C1)CN(S(C)(=O)=O)CCO2 | inactive: 0.971
COC1=C(N)C(=O)c2nc(-c3nc(C(=O)O)c(C)c(-c4ccc(OC)c(OC)c4O)c3N)ccc2C1=O | active: 0.038
C[C@H]1CN([C@@H](C)CO)C(=O)c2cccc(NS(C)(=O)=O)c2O[C@@H]1CN(C)S(=O)(=O)c1cccs1 | inactive: 1
C[C@H]1CCCCO[C@H](CN(C)C(=O)Cc2ccccc2)[C@@H](C)CN([C@@H](C)CO)C(=O)c2cc(NS(=O)(=O)c3ccc(F)cc3)ccc2O1 | inactive: 1.03
